Measured values published in the supplement of paper PMC11417369.
This is one part of the list.

tested on: PF3D7_0420300 AP2 domain 1 (GST-tagged); assay: gcPBM binding intensity (ln(normalized median fluorescence intensity)); higher = stronger DNA binding
How it was run: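 GST-fused DNA-binding domains of P. falciparum, expressed in E. coli, were applied at about 25 μg on average for 1 h to an Agilent 4 × 180k array of primer-extended double-stranded 36-bp intergenic genomic probes and negative controls. Binding intensity is the highest Masliner-normalised natural-log median intensity across replicate spots of either probe orientation, measured with Alexa488 anti-GST antibody and a 488 nm scan.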

| Sequence | gcPBM binding intensity (ln) |
| --- | --- |
| TATATACATATATATACACACATATATATATTTTAT [CACACA_site3788] | 9.52 |
| CATATATTATTTAATAGTACATATAAAAGAAAAAAA [XGTACX_site4643] | 9.25 |
| TATATAAATAAATGTGTACACACATTAAAATCAAAC [CACACA_site8733] | 9.69 |
| ATTTATTTATTTTTTTGTACGAATGTTGCACATATA [XGTACX_site4101] | 9.17 |
| GAAATAATTGTTAAAGGTACACAATGCATATACAAT [XGTACX_site238] | 9.37 |
| ATAATATATACTAAAAGTACATATTATAATAAATTA [XGTACX_site6749] | 9.06 |
| ATAAAATAAATAAATATAAATATATATATATATATA [TGCATGCA_negctrl_site358] | 9.1 |
| CACTCTTAAAATAAGGTGCACTATATAACGTGATTA [GTGCAC_site9422] | 9.06 |
| TATACATATTTACAAGTGCATAATATTTTACAAAAA | 9.06 |
| GTTATAACTCAAATATGTACATATTATAAAACATAT [XGTACX_site6693] | 9.18 |
| TTATAGAACTATATTGCACACATAATATATATATAT [CACACA_site9042] | 9.44 |
| TATAAAAATAAGCACACACACAAATATATATTTATT [CACACA_site922] | 10.1 |
| AAAAAAAAAAAAAAAGGTACACAAATACGTCCTGCA [XGTACX_site3354] | 9.3 |
| AATTATCAAAGTCTATACATACATACATACATACAT [GTGCAC_negctrl_site243] | 9.33 |
| TAATTATAATAAAAAGGTACAGAAAAGTTATACTCA [XGTACX_site6111] | 9.29 |
| GTCAACTTGTGATAAGTGCATATATATAATAAAATG | 9.2 |
| AAAAAAATATAATATTTGAATAAATATAATAATATG [XGTACX_negctrl_site477] | 9 |
| CGAAATAAATCTTATGCACACAAATAATTAATTAAA [CACACA_site8491] | 9.33 |
| AATATATAGGTATTTACACACAATGTGAGATCTATA [CACACA_site3407] | 9.52 |
| ATTTATGAAAAGTAAAGTACACACAGGAAAAAAAAA [XGTACX_site3564] | 9.79 |
| TAAGAAAAAGGCACACGTACATAATTCAAAATAAAT [XGTACX_site982] | 9.77 |
| ATATATATGTATGTATGTACTTATTTATTTATTTAT [XGTACX_site7740] | 9.33 |
| CCAATGAGGATATATACACACATACATTAAAAAAAT [CACACA_site5090] | 9.69 |

| Sequence | gcPBM binding intensity (ln) |
| --- | --- |
| TTTTTTTTCACACATTGTACTTTTTTATAAAATATA [XGTACX_site4351] | 9.34 |
| ATTTAAATAATATGTACACACATTTAAAAAATTATA [CACACA_site2816] | 9.2 |
| AACCTTACACAAGGGGTGCAATATTATTTCGATAAA [GTGCAC_site9600] | 9 |
| TGCTCCTATTATATAGTGCATTTATTTTAATAAACG | 9.04 |
| TAATTTATAAAAAATTGTACATTAAACATATATATA [XGTACX_site5164] | 9.09 |
| TCTTTTCGTTCATGCTGTACTTAATTGCTCTAATTT [XGTACX_site4816] | 9.46 |
| CCCTGCCTCTCTTTGGTGCGTTGTAACCCTCGAGGA | 9.12 |
| AAAAAAAAAAAAAGCACACACACATATGTGTATATA [CACACA_site8225] | 9.93 |
| TAAATTGTATATGAGACTATACTATAAAAGTATGAA [XGTACX_negctrl_site22] | 9 |
| TGTCTGTGCGGGTGTACACATTTCATATTACCCAAT [CACACA_site5593] | 9.57 |
| TAATTTTTCCTTTTTGCACACATTAACGTCGACGAA [CACACA_site4025] | 9.31 |
| CAATTTATTTTTATTACACACTATCCAAATAATTTC [CACACA_site2956] | 9.29 |
| CCATAAAATCATAAGCGTACTTAATATATTTTACTT [XGTACX_site559] | 9.28 |
| AGCATACATATTTTTTGTACATATATATATATATAT [XGTACX_site8536] | 9.34 |
| AACATACGACAATACGCACACATATATGTACATATT [CACACA_site1917] | 9.51 |
| TATATAATAATTTAGAGTACTGATAAAATATTCCAT [XGTACX_site6200] | 9.21 |
| TTAAACAATTTAGACATACACACAAAAATAATATTA [CACACA_site385] | 9.67 |
| TATAAAAAGCAAAACAAAAAAACAAATTGAAAAATT [TGCATGCA_negctrl_site158] | 9.51 |
| TATAAATAATAAAGATGTACTTTTTATGATTCCTAC [XGTACX_site7003] | 9.1 |
| CCGTAGTTTTAAAATAGTACTTTTATGGTTAATAAA [XGTACX_site3162] | 8.82 |
| TTTTTTATTTTTTTATTGTTTTATTGTTTCATTGTT [XGTACX_negctrl_site128] | 9.48 |
| TTACTACTATATTATACACACATATATTTATTTATA [CACACA_site7274] | 9.69 |
